The entries are a selection whose mix differs from that of the whole data set. The list includes weakly bound sequences.
How the values were obtained:
Experiment in all cases: protein-binding microarray (PBM)
Conditions in all cases: PBM: ~300 nM protein, 6 mM HEPES pH 7.8, 80 mM KCl, 0.5 mM EDTA, 0.5 mM EGTA, 6% glycerol, 35 ng/ul poly-dIdC, 1% milk, 1 h, room temperature; Ap Aiptasia and Nv Nematostella (sea anemones) / Co Capsaspora / Aq Amphimedon (sponge) / Dm Drosophila / Hu human; RHD is the Rel homology domain; high values mean tight binding; most listed sequences are background and not binding sites; double strand, one strand shown
[1] = molecular target: T1, GST-Ap-NF-kB RHD (UniProt A0A913YAJ5)
T1 sequence: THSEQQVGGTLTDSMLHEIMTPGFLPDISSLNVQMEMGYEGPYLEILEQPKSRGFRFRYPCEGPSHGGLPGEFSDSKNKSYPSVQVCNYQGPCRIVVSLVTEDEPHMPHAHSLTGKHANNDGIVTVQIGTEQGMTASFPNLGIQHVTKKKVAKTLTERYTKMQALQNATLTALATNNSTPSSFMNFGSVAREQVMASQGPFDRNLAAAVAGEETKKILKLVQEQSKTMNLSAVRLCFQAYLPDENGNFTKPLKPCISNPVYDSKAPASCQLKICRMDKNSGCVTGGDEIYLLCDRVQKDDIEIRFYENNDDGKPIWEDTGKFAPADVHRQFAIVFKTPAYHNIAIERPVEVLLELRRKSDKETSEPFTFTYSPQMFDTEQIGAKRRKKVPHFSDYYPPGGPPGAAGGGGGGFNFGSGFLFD

[2] = molecular target: T2, GST-Nv-NF-kB (Cys allele) (UniProt E5G601)
T2 sequence: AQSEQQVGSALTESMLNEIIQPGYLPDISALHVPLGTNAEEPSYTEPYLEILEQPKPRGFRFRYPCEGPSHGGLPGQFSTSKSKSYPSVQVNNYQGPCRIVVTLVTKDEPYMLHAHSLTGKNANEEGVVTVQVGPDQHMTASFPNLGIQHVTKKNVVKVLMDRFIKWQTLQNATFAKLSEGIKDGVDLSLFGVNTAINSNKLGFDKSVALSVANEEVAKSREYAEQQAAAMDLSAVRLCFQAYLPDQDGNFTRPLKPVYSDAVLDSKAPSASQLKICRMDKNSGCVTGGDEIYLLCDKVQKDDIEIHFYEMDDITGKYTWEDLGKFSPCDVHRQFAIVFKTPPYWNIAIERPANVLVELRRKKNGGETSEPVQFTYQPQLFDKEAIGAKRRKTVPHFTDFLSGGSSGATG

[3] = molecular target: T3, GST-Dm-Relish (UniProt Q94527)
T3 sequence: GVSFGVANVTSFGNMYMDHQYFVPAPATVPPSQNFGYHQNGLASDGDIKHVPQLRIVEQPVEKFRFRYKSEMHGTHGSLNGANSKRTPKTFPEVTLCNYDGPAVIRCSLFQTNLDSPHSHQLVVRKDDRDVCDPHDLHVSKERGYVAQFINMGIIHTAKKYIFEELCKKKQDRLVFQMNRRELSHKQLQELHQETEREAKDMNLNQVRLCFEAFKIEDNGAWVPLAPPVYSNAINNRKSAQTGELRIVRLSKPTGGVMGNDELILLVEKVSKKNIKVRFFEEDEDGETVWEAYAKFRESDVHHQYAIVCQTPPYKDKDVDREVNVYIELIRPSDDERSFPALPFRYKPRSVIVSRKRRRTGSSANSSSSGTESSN

[4] = molecular target: T4, GST-Aq-NF-kB (UniProt A9Y5G7)
T4 sequence: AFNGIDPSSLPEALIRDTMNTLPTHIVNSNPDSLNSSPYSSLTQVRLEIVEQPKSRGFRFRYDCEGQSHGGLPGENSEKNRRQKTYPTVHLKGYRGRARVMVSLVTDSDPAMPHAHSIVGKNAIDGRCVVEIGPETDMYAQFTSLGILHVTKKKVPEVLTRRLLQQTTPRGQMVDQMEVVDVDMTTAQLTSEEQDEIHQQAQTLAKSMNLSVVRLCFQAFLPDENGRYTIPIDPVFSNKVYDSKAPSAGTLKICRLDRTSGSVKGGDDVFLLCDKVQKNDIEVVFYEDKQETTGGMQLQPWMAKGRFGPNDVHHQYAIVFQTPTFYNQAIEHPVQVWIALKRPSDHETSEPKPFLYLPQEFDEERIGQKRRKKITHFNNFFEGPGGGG

[5] = molecular target: T5, GST-Co-NF-kB (UniProt F1ARL5)
T5 sequence: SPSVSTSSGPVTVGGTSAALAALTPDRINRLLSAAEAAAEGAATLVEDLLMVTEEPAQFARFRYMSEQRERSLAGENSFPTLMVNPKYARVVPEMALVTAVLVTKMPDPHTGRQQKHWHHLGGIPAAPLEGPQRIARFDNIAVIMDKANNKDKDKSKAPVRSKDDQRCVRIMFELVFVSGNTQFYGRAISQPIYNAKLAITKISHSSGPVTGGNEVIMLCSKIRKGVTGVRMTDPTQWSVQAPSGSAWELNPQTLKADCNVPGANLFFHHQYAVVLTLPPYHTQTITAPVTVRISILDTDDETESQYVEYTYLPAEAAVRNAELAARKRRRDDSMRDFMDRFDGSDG

Row | Sequence | binding signal [1] [z-score] | binding signal [2] [z-score] | binding signal [3] [z-score] | binding signal [4] [z-score] | binding signal [5] [z-score]
1 | CCGATTAACATCAAAAACCCCCATGATGTTAATCGGGTCTTGATTCGCTTGACGCTGCTG | 9.51 | 8.21 | 9.82 | 7.68 | 
2 | CCGATTAACATCAGACATTTCCCTGATGTTAATCGGGTCTTGATTCGCTTGACGCTGCTG | 2.94 | 4.75 | 0.576 | 5.41 | 
3 | CCGATTAACATCATCGCGGGTAGTGATGTTAATCGGGTCTTGATTCGCTTGACGCTGCTG | 0.586 | 0.039 | 0.139 | 0.442 | 
4 | CCGATTAACATCACGGGGGGGGATGATGTTAATCGGGTCTTGATTCGCTTGACGCTGCTG | 6.27 |  |  | 5.29 | 7.62
5 | CCGATTAACATCAGAAACTTCCCTGATGTTAATCGGGTCTTGATTCGCTTGACGCTGCTG | 4.46 |  |  | 5.51 | 2.41
6 | CCGATTAACATCAGGGGAGTTCATGATGTTAATCGGGTCTTGATTCGCTTGACGCTGCTG | 5.95 |  |  | 3.96 | 3.54
7 | CCGATTAACATCACAAATTTCCCTGATGTTAATCGGGTCTTGATTCGCTTGACGCTGCTG | 4.62 |  |  | 6.5 | 5.22
8 | CCGATTAACATCAGAACTCCCCCTGATGTTAATCGGGTCTTGATTCGCTTGACGCTGCTG | 7.91 |  |  | 6.48 | 6.15
9 | CCGATTAACATCAGGGGGAAACCTGATGTTAATCGGGTCTTGATTCGCTTGACGCTGCTG | 8.24 |  |  | 7.94 | 9.35
10 | CCGATTAACATCAAAACATCCCCTGATGTTAATCGGGTCTTGATTCGCTTGACGCTGCTG | 6.41 |  |  | 7.07 | 4.63
11 | CCGATTAACATCAAGAAATTACCTGATGTTAATCGGGTCTTGATTCGCTTGACGCTGCTG | 1.26 |  |  | 2.27 | 0.765
